# Out of some 76,000 compounds screened, about 1,900 (2.5%) were called active. The inconclusive results got no clear call from the source; some entries with a clear call stand among them for comparison. Calls follow the shape of the dose curve; as a rule, active = well fitted inhibition curve with a large enough effect; inconclusive = small, poorly fitted or top-dose-only effect; inactive = flat fitted curve, though single readings scatter. A potency beside an inconclusive call is a rough fit, not a confirmed value.
# Biological target: Luciferin 4-monooxygenase (Photinus pyralis) (UniProt P08659)
# Assay: Firefly luciferase inhibition profiling of diverse chemical library using quantitative high-throughput screening; also: nearly all actives have a fitted effect of over 65% in size
# Settings: purified P. pyralis luciferase, luminescence, biochemical; activity change, negative = inhibition: at 115 µM (top of the series) unless noted
# Description: Firefly (Photinus pyralis) luciferase is one of the most commonly used transcriptional reporters for a number of reasons. It is considered one of the more dynamically responsive reporters - that is, responsive to changes in reporter transcription - as it requires no post-translational modifications and is enzymatically active directly after protein synthesis (Wood, 1998). Additionally, the half-life of the luciferase protein is short relative to other reporter-gene products (Wood, 1995). Whereas reporters with long half-lives potentially allow for increased signal due to accumulation of reporter-gene product, once accumulated in the cell, dynamic changes in reporter-gene expression may be difficult to detect(Fan and Wood, 2007; Almond et al., 2004). It has been shown that wild-type P. pyralis luciferase has a half-life of approximately four hours in mammalian cells (Thompson et al., 1991). Firefly luciferase reporter-gene assays are also generally considered one of the most sensitive assay types (Wood, 1995; Wood, 1998). Although light produced in a bioluminescence reaction is of lower intensity than that produced during fluorescence emission, this is offset by little to no background light inherent to luminescent assays. Thus the luciferase reporter can be expressed at much lower levels than fluorescent proteins while still providing robust signal. However, it was initially observed, in 1991, by Thompson et al., that compounds that resemble the substrates of firefly luciferase (FLuc) can act as competitive inhibitors of the enzyme, and that these compounds, upon interaction with luciferase in the cell, can actually stabilize the protein and increase its half-life. Accumulated intracellular FLuc protein can be measured as an increase in luminescence signal, upon addition of detection reagents (which contain high concentrations of FLuc substrates) commonly used in high-throughput screening. In cell-based reporter gene assays that use FLuc as the reporter gene to quantitate the potential influence of a given compound against the target biology, this apparent increase in luminescence can mistakenly be interpreted as identification of a compound that is active against the target of interest. FLuc inhibitory compounds that stabilize the FLuc protein will give an identical read-out, making it difficult to distinguish compounds that are active against the target from those active against FLuc. In summary, the results generated here constitutes a valuable resource for the scientific community and provides insight on identifying compounds with inhibitory activity for the commonly-used reporter, firefly luciferase. References: -Almond, B., Zdanovsky, A., Zdanovskaia, M., Ma, D., Stecha, P., Paguio, A., Garvin, D., and Wood, K. (2004). Introducing the Rapid Response Reporter Vectors. Promega Notes 87, 18-22. -Fan, F., and Wood, K.V. (2007). Bioluminescent assays for high-throughput screening. Assay Drug Dev Technol 5, 127-136. -Thompson, J.F., Hayes, L.S., and Lloyd, D.B. (1991). Modulation of firefly luciferase stability and impact on studies of gene regulation. Gene 103, 171-177. -Wood, K.V. (1998). The chemistry of bioluminescent reporter assays. Promega Notes 65, 14-20. -Wood, K.V. (1995). Marker proteins for gene expression. Curr Opin Biotechnol 6, 50-58.
# Reagents: 50mM Tris acetate, pH 7.5; 10mM Mg acetate; 10uM D-luciferin (Sigma #L9504); 10uM ATP; 0.01% Tween-20; 0.05% BSA; 10nM P. pyralis luciferase (Sigma #L9506) Control compounds used were two known firefly luciferase inhibitors (compounds (2) and (5) in Auld et al., 2010), and DMSO. Assay Summary: Three microliters containing firefly luciferase substrates in buffer (final concentrations: 50mM Tris acetate, pH 7.5, 10mM Mg acetate, 0.01% Tween-20, 0.05% BSA, 10uM D-luciferin, and 10uM ATP) are dispensed into each well of a Greiner white, solid-bottom 1536-well format plate using a flying reagent dispenser (FRD). […]
# % is scaled to controls: 0 for no effect and ±100 for the full control effect; tags tell the direction and shape of the fitted curve.
# UniProt P08659, sequence (P08659 whole entry, looked up): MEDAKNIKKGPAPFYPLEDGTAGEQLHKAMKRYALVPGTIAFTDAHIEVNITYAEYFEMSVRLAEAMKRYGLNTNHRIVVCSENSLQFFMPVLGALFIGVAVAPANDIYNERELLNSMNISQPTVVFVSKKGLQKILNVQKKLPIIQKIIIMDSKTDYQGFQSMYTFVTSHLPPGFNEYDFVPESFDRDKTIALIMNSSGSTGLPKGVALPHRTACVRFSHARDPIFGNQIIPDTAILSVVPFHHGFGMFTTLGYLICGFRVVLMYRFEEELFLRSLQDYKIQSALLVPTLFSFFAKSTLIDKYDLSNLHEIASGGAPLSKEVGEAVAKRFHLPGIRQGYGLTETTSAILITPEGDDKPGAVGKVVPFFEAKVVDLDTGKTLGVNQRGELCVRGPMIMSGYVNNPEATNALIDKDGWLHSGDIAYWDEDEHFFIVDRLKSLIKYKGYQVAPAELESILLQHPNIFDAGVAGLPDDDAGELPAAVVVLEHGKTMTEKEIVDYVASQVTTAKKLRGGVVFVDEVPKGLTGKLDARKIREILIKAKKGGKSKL
SMILES,Potency,"activity change, negative = inhibition"
O=C(Nc1cccc(-c2ccc(N3CCOCC3)nn2)c1)Nc1ccccc1Cl,active: 1.58 µM,
N#Cc1ccc(CNC(=O)[C@@H]2Cc3nc[nH]c3CN2Cc2ccc(C(F)(F)F)cc2)cc1,,inactive: -0.625%
O=C(c1cn[nH]c1-c1ccc(F)cc1)N1CCCC(Cc2noc(-c3ccccc3)n2)C1 (stereo not given),"inconclusive: 89.1 µM [inhibitor, partial curve, poor fit]",
CCc1noc(-c2cccn3c(CNC(=O)c4cc(Cl)ccc4F)nnc23)n1,,inactive: -10.2%
CN1c2cc(C(=O)Nc3ccc(F)cc3)ccc2C(=O)N2CCCCC21 (stereo not given),active: 25.1 µM,
CCn1ncc(NC(=O)Cn2ncc3cc(-c4ccc(C)cc4F)ccc32)n1,active: 14.1 µM,
O=C(CCCc1ccccc1)Nc1ccnn1C1CCN(C(=O)CCN2CCCC2=O)CC1,"inconclusive: 50.1 µM [inhibitor, partial curve, poor fit]",
O=C(NCc1ccnc2[nH]ccc12)c1ccc(Cl)cc1,"inconclusive: 44.7 µM [inhibitor, partial curve]",
CC(=O)Nc1ccccc1-c1c(C)nn2c1N(CCC(C)C)CCC2,,inactive: -1.55% [at 172 µM]
CC(C)(Oc1nn(CCN2CCOCC2)c2ccccc12)C(=O)NCCOc1ccccc1,,inactive: -3.06%
Cc1cccc(-c2noc([C@@H]3Cc4nc[nH]c4CN3C(=O)c3ccccc3C(=O)O)n2)c1,"inconclusive: 50.1 µM [inhibitor, partial curve]",
O=C1NCCCc2[nH]c(-c3csc(-c4ccccc4)n3)nc21,active: 25.1 µM,
CNC(=O)CCn1ncc2cc(OCc3ccccc3-c3cncc(OC)c3)ccc21,active: 22.4 µM,
Cn1nccc1C(=O)N1CCC2(CC1)CC(N(Cc1ccccc1)C1CC1)CCO2 (stereo not given),,inactive: 7.79%
O=C(Nc1cnc(-c2cccc(Cl)c2)nc1)c1ccsc1,"inconclusive: 3.16 µM [inhibitor, full curve]",
CN1c2cc(C(=O)Nc3ccc(F)c(F)c3)ccc2C(=O)N2CCCCC21 (stereo not given),"inconclusive: 2.51 µM [inhibitor, full curve]",
Cc1ccc(OCC(=O)N2CCC(c3nn(C)c4c3COCC4)CC2)cc1,"inconclusive: 50.1 µM [inhibitor, partial curve]",
O=C(NC1CCCN(c2cc(-c3ccc(F)cc3)[nH]n2)C1)c1ccccc1 (stereo not given),"inconclusive: 35.5 µM [inhibitor, partial curve, poor fit]",

SMILES,Potency,"activity change, negative = inhibition"
COCCN1C(=O)c2ccccc2C(C(=O)NCCc2ccc(Cl)cc2)C12CCCC2 (stereo not given),,inactive: -2.91%
Cc1ccc(C2Cn3cnc(C(=O)N4CCC(C(=O)NC5CCCC5)CC4)c3CO2)cc1 (stereo not given),"inconclusive: 28.2 µM [inhibitor, partial curve]",
O=C(c1cc(-c2ccccc2F)cc2c1OCCN2Cc1cccnc1)N1CCCC1,"inconclusive: 63.1 µM [inhibitor, full curve]",
Cc1ccc(C2=NC3(CCN(C(=O)c4ccc[nH]4)CC3)ON2)cc1,"inconclusive: 35.5 µM [inhibitor, partial curve]",
COCc1nc(N2CC3C[C@@H]4CC2C[C@H](C3)C4)c2cnn(C)c2n1,,inactive: 7.78%
COc1ccc(Cl)cc1C(=O)N1CCC2(CC1)NC(=O)N(c1ccccc1Cl)N2,,inactive: 17.1%
CCCN1C(=O)CCc2cc(NC(=O)c3ccc(OC(F)(F)F)cc3)ccc21,"inconclusive: 20 µM [inhibitor, full curve]",
CCOc1ccc(NC(=O)c2ccc3c(c2)N(C)C2CCCCN2C3=O)cc1 (stereo not given),"inconclusive: 31.6 µM [inhibitor, partial curve]",
COc1ccccc1Nc1ncncc1-c1nc(-c2ccccc2)no1,,inactive: 3.06%
O=C(c1ccc(OC2CCN(Cc3c[nH]c4ccccc34)CC2)cc1)N1CCCCC1,,inactive: -0.319%
COC1CCN(C(=O)C2(C)CN(Cc3ccccc3)Cc3ccc(Nc4ccccc4)nc32)CC1 (stereo not given),,inactive: -15.1%
CCCCNc1nc2c(s1)C[C@]1(C)CC[C@@H]3[C@H](OC(=O)[C@H]3C)[C@H]1[C@@H]2C,"inconclusive: 3.98 µM [inhibitor, full curve, poor fit]",
Cc1ccc(CN2CC[C@H](c3nnc(-c4ccccc4)o3)C2)cc1,"inconclusive: 112 µM [inhibitor, single point]",
CCNC(=O)[C@@H]1C[C@H](N)CN1S(=O)(=O)c1ccc2ccccc2c1,,inactive: -0.218%
COc1cccc(-c2cc3c(=O)n(CCNC(=O)c4c(F)cccc4F)ccn3n2)c1,active: 7.94 µM,
CCNC(=O)N[C@H]1CO[C@H]2[C@@H]1OC[C@@H]2Nc1nccc(-c2ccc(-c3ccccc3)cc2)n1,"inconclusive: 17.8 µM [inhibitor, full curve]",
COc1cc2c(cc1OC)C(CNC(=O)Nc1ccc(C)cc1)N(C(=O)NC(C)C)CC2 (stereo not given),"inconclusive: 44.7 µM [inhibitor, partial curve]",
